Data: PMC9911399, “Two distinct binding modes provide the RNA-binding protein RbFox with extraordinary sequence specificity”
Changes are numbered by the printed parent chain; changes in the protein carry UniProt numbers. This is one part of the list.

T1: RBFOX1 RRM RbFoxmut (Fox-RRM*) (Homo sapiens, UniProt Q9NWB1 109-208, R118D;E147R;N151S;E152T)
T1 sequence: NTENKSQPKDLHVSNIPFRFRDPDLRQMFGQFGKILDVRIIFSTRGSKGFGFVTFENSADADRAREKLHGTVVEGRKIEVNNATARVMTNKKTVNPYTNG

B1: CAAUUGC (DNA:RNA)
RNA: GGGAGACCGGAAUUCAGAUUGUCCCAAUUGCUUAAAUCCCGUCGUAGCCACCA
DNA 1: CAATCTGAATTCCGGTCTCCC
DNA 2: TGGTGGCTACGACGGGATT
B2: CUUGCUU (DNA:RNA)
RNA: B1 RNA with A26U, A27U, U28G, U29C, G30U, C31U
DNA 1: CAATCTGAATTCCGGTCTCCC
DNA 2: TGGTGGCTACGACGGGATT
B3: GGUGACC (DNA:RNA)
RNA: B1 RNA with C25G, A26G, A27U, U28G, U29A, G30C
DNA 1: CAATCTGAATTCCGGTCTCCC
DNA 2: TGGTGGCTACGACGGGATT
B4: GCCCAAC (DNA:RNA)
RNA: B1 RNA with C25G, A26C, A27C, U28C, U29A, G30A
DNA 1: CAATCTGAATTCCGGTCTCCC
DNA 2: TGGTGGCTACGACGGGATT
B5: UCUCUGG (DNA:RNA)
RNA: B1 RNA with C25U, A26C, A27U, U28C, C31G
DNA 1: CAATCTGAATTCCGGTCTCCC
DNA 2: TGGTGGCTACGACGGGATT
B6: UGGUAAC (DNA:RNA)
RNA: B1 RNA with C25U, A26G, A27G, U29A, G30A
DNA 1: CAATCTGAATTCCGGTCTCCC
DNA 2: TGGTGGCTACGACGGGATT
B7: UAAUUAC (DNA:RNA)
RNA: B1 RNA with C25U, G30A
DNA 1: CAATCTGAATTCCGGTCTCCC
DNA 2: TGGTGGCTACGACGGGATT
B8: ACUCGUC (DNA:RNA)
RNA: B1 RNA with C25A, A26C, A27U, U28C, U29G, G30U
DNA 1: CAATCTGAATTCCGGTCTCCC
DNA 2: TGGTGGCTACGACGGGATT
B9: GCACAUG (DNA:RNA)
RNA: B1 RNA with C25G, A26C, U28C, U29A, G30U, C31G
DNA 1: CAATCTGAATTCCGGTCTCCC
DNA 2: TGGTGGCTACGACGGGATT
B10: CGGGAUG (DNA:RNA)
RNA: B1 RNA with A26G, A27G, U28G, U29A, G30U, C31G
DNA 1: CAATCTGAATTCCGGTCTCCC
DNA 2: TGGTGGCTACGACGGGATT
B11: UUUCUGC (DNA:RNA)
RNA: B1 RNA with C25U, A26U, A27U, U28C
DNA 1: CAATCTGAATTCCGGTCTCCC
DNA 2: TGGTGGCTACGACGGGATT
B12: ACACACU (DNA:RNA)
RNA: B1 RNA with C25A, A26C, U28C, U29A, G30C, C31U
DNA 1: CAATCTGAATTCCGGTCTCCC
DNA 2: TGGTGGCTACGACGGGATT
B13: GUUCGCA (DNA:RNA)
RNA: GGGAGACCGGAAUUCAGAUUGUCCGUUCGCAUUAAAUCCCGUCGUAGCCACCA
DNA 1: CAATCTGAATTCCGGTCTCCC
DNA 2: TGGTGGCTACGACGGGATT
B14: UAGGUUU (DNA:RNA)
RNA: B1 RNA with C25U, A27G, U28G, G30U, C31U
DNA 1: CAATCTGAATTCCGGTCTCCC
DNA 2: TGGTGGCTACGACGGGATT
B15: CGGGCUA (DNA:RNA)
RNA: B1 RNA with A26G, A27G, U28G, U29C, G30U, C31A
DNA 1: CAATCTGAATTCCGGTCTCCC
DNA 2: TGGTGGCTACGACGGGATT
B16: CGAAAUG (DNA:RNA)
RNA: B1 RNA with A26G, U28A, U29A, G30U, C31G
DNA 1: CAATCTGAATTCCGGTCTCCC
DNA 2: TGGTGGCTACGACGGGATT
B17: ACACUAG (DNA:RNA)
RNA: B1 RNA with C25A, A26C, U28C, G30A, C31G
DNA 1: CAATCTGAATTCCGGTCTCCC
DNA 2: TGGTGGCTACGACGGGATT
B18: GUGGUAC (DNA:RNA)
RNA: B1 RNA with C25G, A26U, A27G, U28G, G30A
DNA 1: CAATCTGAATTCCGGTCTCCC
DNA 2: TGGTGGCTACGACGGGATT
B19: GACAGAA (DNA:RNA)
RNA: B13 RNA with U26A, U27C, C28A, C30A
DNA 1: CAATCTGAATTCCGGTCTCCC
DNA 2: TGGTGGCTACGACGGGATT
B20: GCUGCCG (DNA:RNA)
RNA: B13 RNA with U26C, C28G, G29C, A31G
DNA 1: CAATCTGAATTCCGGTCTCCC
DNA 2: TGGTGGCTACGACGGGATT

The binders below were run against T1, RBFOX1 RRM RbFoxmut (Fox-RRM*) (assay: EMSA; HiTS-Eq, 1 nM pool, 10 min; buffer printed only for the single-RNA assays: 10 mM Tris pH 7.5, 150 mM NaCl, 3.4 mM EDTA, 0.001% NP-40, 30 C). Conditions: tags: His6 N-terminal (pET28a); label: 5' 32P.
Method in brief: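 Relative association constants, normalised to the cognate motif, were derived by comparing read counts of each RNA species with those of the control reaction. The RNA sequenced was the free fraction, separated by 8% native PAGE after a 10 min equilibration in 50 µL of 1 nM 5′-radiolabelled RNA (7 randomized nucleotides) with increasing concentrations of purified wild-type or mutant RbFox RRM.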
In the case of B1, the binding signal is reported as 0.121 KA relative to UGCAUGU. With B2 the binding signal was 0.123 KA relative to UGCAUGU. B3 was tested, and the binding signal was 0.0965 KA relative to UGCAUGU. For B4, the binding signal was 0.0746 KA relative to UGCAUGU. In the case of B5, the binding signal is reported as 0.105 KA relative to UGCAUGU. In the case of B6, the binding signal is reported as 0.0853 KA relative to UGCAUGU. B7 was tested, and the binding signal was 0.101 KA relative to UGCAUGU. With B8 the binding signal was 0.0961 KA relative to UGCAUGU. B9 was tested, and the binding signal was 0.128 KA relative to UGCAUGU. In the case of B10, the binding signal is reported as 0.296 KA relative to UGCAUGU. In the case of B11, the binding signal is reported as 0.0923 KA relative to UGCAUGU. With B12 the binding signal was 0.0665 KA relative to UGCAUGU. With B13 the binding signal was 0.157 KA relative to UGCAUGU. With B14 the binding signal was 0.119 KA relative to UGCAUGU. In the case of B15, the binding signal is reported as 0.106 KA relative to UGCAUGU. For B16, the binding signal was 0.101 KA relative to UGCAUGU. With B17 the binding signal was 0.112 KA relative to UGCAUGU. With B18 the binding signal was 0.131 KA relative to UGCAUGU. For B19, the binding signal was 0.0707 KA relative to UGCAUGU. B20 was tested, and the binding signal was 0.0973 KA relative to UGCAUGU.
